According to PubChem BioAssay AID686970 (National Center for Advancing Translational Sciences (NCATS), 2013):
Among all 360,000 compounds or so, about 6,000 (1.7%) were called active. The inconclusive results got no clear call from the source; some entries with a clear call stand among them for comparison. The call rests on the fitted dose curve; in most records, active means well fitted cell-killing curve with a large enough effect; inconclusive means small, poorly fitted or top-dose-only effect, or effect the other way; inactive means flat fitted curve, though single readings scatter. Potencies of inconclusive entries are left out as doubtful fits.

Test: qHTS for induction of synthetic lethality in tumor cells producing 2HG: qHTS for the HT-1080-NT fibrosarcoma cell line;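 further: NT is the 2HG producing partner of a matched IDH1 knockdown line; nearly all actives have a fitted effect of over 55% in size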;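 on activity, negative = less viability: 0% = DMSO-treated cells and -100% = media-only wells without cells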
Settings: HT-1080-NT fibrosarcoma viability, CellTiter-Glo ATP luminescence, 48 h; activity, negative = less viability: at 46.1 µM (top of the series) unless noted
Procedure, shortened: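 HT-1080-NT fibrosarcoma cells (2HG-overproducing), 750 cells/well in RPMI with 5% FBS, dosed after 2 h and incubated 48 h at 37C. CellTiter-Glo luminescence normalized to DMSO and no-cell wells; concentration-response curves fitted and classed.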
Potency means the concentration at half of the fitted maximal effect; tags describe the fitted curve by direction and shape.

Row | SMILES | Potency | activity, negative = less viability
1 | O=C(N/N=C/c1cc([N+](=O)[O-])cc(Br)c1O)C12CC3CCC(CC(C3)C1)C2 | inactive | 
2 | O=C(Nc1ccccc1F)C(=Cc1sc(N2CCOCC2)nc1-c1ccccc1)C(=O)Nc1ccccc1F | inactive | 
3 | N#CC1C(=N)Cc2ccccc2-c2ccccc21 (stereo not drawn) | active: 11.6 µM | 
4 | CCCCn1nnnc1C(c1ccccc1)N1CCN(c2cccc(C(F)(F)F)n2)CC1 (stereo not drawn) | inactive | 
5 | CN(C(=O)C=Cc1ccco1)c1ccccc1 | inactive | 
6 | CC1=C(/C=C/C(C)=C/C=C/C(C)=C/C(=O)Nc2ccc(O)cc2)C(C)(C)CCC1 | active: 14.6 µM | 
7 | O=C(c1cccc(S(=O)(=O)NCc2ccccc2)c1)N1CCN(c2ccccc2Cl)CC1 | inconclusive [cytotoxic, single point] | 
8 | Cc1cc(NC(=O)c2cccs2)n(-c2nc3ccccc3[nH]2)n1 | inconclusive [cytotoxic, partial curve] | 
9 | CC(O)(c1cccc(F)c1)c1nc(-c2cccc3cccnc23)cs1 (stereo not drawn) | inconclusive [cytotoxic, single point] | 
10 | Cc1ccc(S(=O)(=O)N2C[C@H]3n4c(=O)ccc(=O)n4C[C@H](OC(=O)Nc4cccs4)[C@@]3(O)C2)cc1 | inconclusive [cytotoxic, partial curve] | 
11 | CCOC(=O)N1CCN(S(=O)(=O)N2CCCC(C(=O)NCc3ccc(OC)cc3)C2)CC1 (stereo not drawn) | inactive | 
12 | Nc1cc(-c2ccc(OC(F)(F)F)cc2)nn1-c1ccc(Cl)c(Cl)c1 | inconclusive [cytotoxic, single point] | 
13 | O=C(NCCCN1CCOCC1)c1cc(-c2ccc(Br)cc2)on1 |  | inconclusive: -37.3% [cytotoxic]
14 | Cc1cccc(N2C(=O)c3ccc(C(=O)Nc4c[nH]c(=O)[nH]c4=O)cc3C2=O)c1 | inconclusive [rising, single point] | 
15 | CCOc1ccc2nc3c(cc2c1)CN(CCCO)C(=NCCOC)S3 | inactive | 
16 | Cc1nc2scc(-c3ccc(C(C)(C)C)cc3)c2c(=O)n1N | inconclusive [cytotoxic, partial curve] | 
17 | Cc1cccc2nc(=S)n(C(=O)c3ccco3)n12 | inconclusive [cytotoxic, full curve] | 
18 | COc1ccc(NC(=O)C2=CC(c3ccc(OC)cc3)=NS(=O)(=O)N2C)cc1 | inactive | 
19 | Cn1cc(CC(=O)NCc2ccc(F)cc2)c2ccccc21 | inactive | 
20 | CC[n+]1c(/C=C2\C=C(C)CC(C)C2)sc2ccccc21 (stereo not drawn) | inconclusive [cytotoxic, partial curve] | 
21 | Cc1ccc(-n2[nH]c(C)c(C=Nc3cc(C)ccn3)c2=O)cc1 | active: 10.3 µM | 
22 | CC(C)(C)c1ccc(C(=O)NNC(=O)c2cccc(Br)c2)cc1 | inconclusive [cytotoxic, single point] | 
23 | Cc1ccc(C23CC4CC(CC(NC(=O)NCCN(C)C)(C4)C2)C3)cc1 | active: 20.6 µM | 
24 | c1ccc(CCc2cc3ccccc3[nH]2)cc1 | inconclusive [rising, partial curve] | 
25 | CC(C)C(=O)N(Cc1cc2ccccc2[nH]c1=O)C(C)C | inactive | 

Row | SMILES | Potency | activity, negative = less viability
26 | O=C(NNC(=O)c1ccc2ccccc2c1)c1cccc(Cl)c1 | inactive | 
27 | Oc1ccccc1-c1cc(C(F)(F)C(F)F)[nH]n1 | inconclusive [cytotoxic, single point] | 
28 | C/C(=N\NC(=O)COc1c(C)cccc1C)c1cccs1 | inconclusive [cytotoxic, single point] | 
29 | CN(C)c1ccc(C(C[N+](=O)[O-])c2c(N)n(C)c(=O)n(C)c2=O)c(F)c1C#N (stereo not drawn) | inconclusive [cytotoxic, single point] | 
30 | CCOP(=O)(OCC)c1nc(-c2cccc3ccccc23)oc1NCCc1ccc(OC)cc1 | inactive | 
31 | c1cncc(C2Nc3ccccc3-c3nc4ccccc4n32)c1 (stereo not drawn) | inconclusive [cytotoxic, single point] | 
32 | COc1ccc(-c2cc(-c3cc(OC)ccc3O)[nH]n2)cc1 | inconclusive [cytotoxic, single point] | 
33 | COC(=O)NNC(=S)Nc1cc(OC)ccc1OC | inconclusive [cytotoxic, single point] | 
34 | COc1cccc(CNCc2ccc(OC)c3ccccc23)c1OC | inconclusive [cytotoxic, partial curve] | 
35 | CCN(CC(=O)Nc1ccccc1OC)C(=O)CSCC(=O)Nc1ccc(OC)cc1 | active: 18.4 µM | 
36 | NC(=O)C1CCN(C2=C(Cl)C(=O)c3ccccc3C2=O)CC1 | inconclusive [cytotoxic, single point] | 
37 | O=C(O)c1ccccc1C(=O)NCC(O)c1ccccc1 (stereo not drawn) |  | inconclusive: 30.1%
38 | Brc1ccc(C2C3=C(Nc4ncnn42)c2ccccc2OC3c2ccncc2)cc1 (stereo not drawn) | inconclusive [cytotoxic, partial curve] | 
39 | CCN1C(=O)S/C(=C/c2ccsc2)C1=O | inactive | 
40 | Cc1ccc(CNS(=O)(=O)c2ccc3c(c2)CCN3C(=O)CCCC(=O)O)cc1 | inactive | 
41 | CC(C)c1ccc(/C=C/C2=NNC(=O)CC2)cc1 | inconclusive [cytotoxic, partial curve] | 
42 | CC1=NN(c2ccccc2)C(=O)C1N=Nc1cccc(O)c1 (stereo not drawn) | inconclusive [cytotoxic, partial curve, poor fit] | 
43 | N#Cc1c(C(F)(F)F)cc(-c2ccco2)nc1SCc1ccccn1 | inconclusive [cytotoxic, single point] | 
44 | Cc1ccc(-n2nnc3c(=O)oc4ccccc4c32)cc1 | inconclusive [cytotoxic, single point] | 
45 | CCOC(=O)N1CCN(CCC(=O)c2ccc(Br)cc2)CC1 | inconclusive [cytotoxic, single point] | 
46 | COc1cc(CN2CCNC(=O)C2CC(=O)N2CCCO2)cc(OC)c1 (stereo not drawn) | inactive | 
47 | O=C(Nc1cccc2ccccc12)c1ccc(OC(=S)N2CCOCC2)cc1 | inconclusive [cytotoxic, single point] | 
48 | O=C(/C=C/c1ccc2c(c1)OCCO2)c1ccc(O)cc1 | inconclusive [cytotoxic, single point] | 
49 | O=c1ccc2c(-c3ccccc3S(=O)(=O)O)c3ccc(O)c(O)c3oc-2c1O | inconclusive [cytotoxic, single point] | 
50 | CN(C)CCCN(Cc1cc2cc3c(cc2[nH]c1=O)OCO3)C(=S)NCc1ccco1 | inactive | 

Row | SMILES | Potency | activity, negative = less viability
51 | Cc1cc(C)cc(NS(=O)(=O)c2ccc3[nH]c(=O)ccc3c2)c1 | inconclusive [cytotoxic, partial curve] | 
52 | COc1ccc2cc(C#N)c(N3CCOCC3)nc2c1 | inactive | 
53 | C/C(=N\NC(=O)c1ccc([N+](=O)[O-])c(C)c1)c1ccccc1Cl | inactive | 
54 | CCOc1ccc(CN2C(=O)c3ccccc3Sc3ccc(C(=O)NCCCN4CCOCC4)cc32)cc1 | inconclusive [cytotoxic, single point] | 
55 | O=C1CCN(Cc2ccccc2)CCN1[C@H](COc1ccccc1)Cc1ccccc1 | inconclusive [cytotoxic, single point] | 
56 | O=C(/C=C/Nc1ccc(Br)cn1)c1cccc(OC(F)F)c1 | inconclusive [cytotoxic, single point] | 
57 | Cc1cc(C)cc(NS(=O)(=O)CCCS(=O)(=O)Nc2cc(C)cc(C)c2)c1 | inconclusive [cytotoxic, single point] | 
58 | CCOC(=O)c1c2ccc(OCC(=O)N/N=C/c3ccc(C)cc3)cc2n2ccccc12 | inactive | 
59 | O=C(O)COc1ccc(/C=C/C(=O)c2ccc(C3CCCCC3)cc2)cc1 | inconclusive [cytotoxic, partial curve] | 
60 | Cc1ccc(-c2n[nH]c3c2CCC3)cc1 | inactive | 
61 | C#CCNC(=O)C[C@@H]1C[C@@]2(C(=O)OCC)CCCC=C2N(Cc2ccco2)C1=O | inactive | 
62 | CCN(Cc1ccccc1)S(=O)(=O)c1ccc(C(=O)N(CCCN(C)C)c2nc3cc4c(cc3s2)OCO4)cc1 | inconclusive [cytotoxic, single point] | 
63 | CC(C)Cn1c([N+](=O)[O-])nc2c1c(=O)[nH]c(=O)n2C | active: 13 µM | 
64 | CCN(CC)c1ccc(/C=N/NC(=O)c2cnccn2)c(O)c1 | inconclusive [cytotoxic, full curve] | 
65 | COc1ccc(-c2ccc(NS(=O)(=O)c3cc([N+](=O)[O-])c(C)c([N+](=O)[O-])c3)cc2)nn1 | inactive | 
66 | Cc1cc(C(=O)CCl)c(C)n1CCc1ccc(Cl)cc1 | active: 14.6 µM | 
67 | CCCCNC(=O)CSc1nnc(Cc2ccccc2)n1CC1CCCO1 (stereo not drawn) | inconclusive [cytotoxic, single point] | 
68 | COc1ccc2[nH]c(-c3cccc(F)c3)cc(=O)c2c1 | inconclusive [cytotoxic, full curve] | 
69 | COc1ccc(-c2cc(-c3ccccc3)nc(NN)n2)cc1OC | inconclusive [cytotoxic, single point] | 
70 | CN(c1ccccc1)S(=O)(=O)c1cccc(NC(=O)CSc2n[nH]c(N)n2)c1 | inactive | 
71 | Cc1c(Br)c(C(F)(F)F)nn1CC(=O)NCC1CCCO1 (stereo not drawn) | inconclusive [rising, single point] | 
72 | NC(=O)CC(NC(=O)Cc1ccc(Br)cc1)c1ccc(NC2CC3CCC2C3)c([N+](=O)[O-])c1 (stereo not drawn) | inconclusive [cytotoxic, single point] | 
73 | NS(=O)(=O)c1ccc(CCNCC(=O)N2CCC(Cc3ccccc3)CC2)cc1 | inconclusive [cytotoxic, single point] | 
